# Assay results reported in paper PMC4336329 (PLoS ONE, 2015).
# Screen size: about 310,000 compounds; about 14,000 (4.5%) showed an effect of 50% or more. The effect is printed as a negative number. This is one part of the list.
# Target: human ether-à-go-go-related gene (hERG) potassium channel (human, UniProt Q12809)
# Experiment: primary screen, population patch clamp on CHO cells stably expressing hERG
# 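Note: peak tail current of the secondary pulse compared with the same well before compound.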
# Chain of human ether-à-go-go-related gene (hERG) potassium channel (Q12809 whole entry, looked up): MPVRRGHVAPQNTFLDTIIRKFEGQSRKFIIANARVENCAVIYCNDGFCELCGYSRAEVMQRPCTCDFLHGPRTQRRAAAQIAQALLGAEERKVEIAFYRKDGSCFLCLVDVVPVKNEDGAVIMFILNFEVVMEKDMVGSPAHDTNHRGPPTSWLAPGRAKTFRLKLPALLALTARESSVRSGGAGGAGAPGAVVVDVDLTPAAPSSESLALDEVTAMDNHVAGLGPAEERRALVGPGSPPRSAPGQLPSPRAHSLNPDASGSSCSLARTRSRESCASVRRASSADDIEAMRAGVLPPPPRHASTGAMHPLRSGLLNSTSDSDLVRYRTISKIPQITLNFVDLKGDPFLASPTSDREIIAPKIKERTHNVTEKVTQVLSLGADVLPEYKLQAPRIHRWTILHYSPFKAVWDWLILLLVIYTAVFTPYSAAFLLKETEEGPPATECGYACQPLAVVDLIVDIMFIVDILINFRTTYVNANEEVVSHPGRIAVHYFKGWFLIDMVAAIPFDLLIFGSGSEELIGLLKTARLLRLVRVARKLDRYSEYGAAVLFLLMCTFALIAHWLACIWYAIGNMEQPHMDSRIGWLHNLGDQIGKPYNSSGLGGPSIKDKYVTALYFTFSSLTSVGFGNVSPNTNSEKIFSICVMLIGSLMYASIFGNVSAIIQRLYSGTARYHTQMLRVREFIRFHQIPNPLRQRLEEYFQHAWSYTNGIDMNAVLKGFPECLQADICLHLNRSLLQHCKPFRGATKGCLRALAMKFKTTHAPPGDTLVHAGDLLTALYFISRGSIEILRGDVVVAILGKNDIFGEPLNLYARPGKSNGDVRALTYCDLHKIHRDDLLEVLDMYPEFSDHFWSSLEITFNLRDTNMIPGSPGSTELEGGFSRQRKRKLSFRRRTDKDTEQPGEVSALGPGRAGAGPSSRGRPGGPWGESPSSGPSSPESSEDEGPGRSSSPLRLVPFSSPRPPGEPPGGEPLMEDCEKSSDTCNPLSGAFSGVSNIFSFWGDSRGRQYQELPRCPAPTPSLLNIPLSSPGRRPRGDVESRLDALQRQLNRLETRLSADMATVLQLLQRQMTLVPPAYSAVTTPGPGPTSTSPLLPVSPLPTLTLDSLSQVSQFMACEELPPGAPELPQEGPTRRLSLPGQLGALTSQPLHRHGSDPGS
row,Structure (SMILES),"hERG current change (%, negative = inhibition) at 10uM [%]"
1,Cc1ccc(S(=O)(=O)NNC(=O)c2ccc3ccccc3n2)cc1,3.47
2,CS(=O)(=O)c1ccc(NC(=O)CCN2C(=O)NC3(CCCC3)C2=O)cc1,9.37
3,c1ccc(COc2ccc(CN3CCN(c4ccccn4)CC3)cc2)cc1,-23
4,CCOc1ccc(C(=O)O/N=C(\N)c2ccccn2)cc1OCC,-8.85
5,C/C(=N\NC(=O)c1ccc([N+](=O)[O-])cc1Cl)c1ccccc1,12.2
6,COc1ccc(Cn2c(C)nnc2-c2cnn(C)c2N)cc1OC,7.41
7,O=C(CSc1nnnn1C1CC1)Nc1cccc(S(=O)(=O)N2CCCC2)c1,-11.7
8,CCn1cc(C(=O)N2CCCc3ccccc32)c2cc(OC)c(OC)cc2c1=O,-2.25
9,Cc1csc(NC(=O)c2cc(C)on2)n1,10.6
10,CCC(=O)Nc1cccc(-c2nnc(-c3ccccc3)o2)c1,-4.36
11,c1ccc(CNc2nc3ccccc3[nH]2)cc1,-10.6
12,O=C(Cn1c(CO)nc2ccccc21)Nc1ccc2c(c1)OCCCO2,-6.55
13,O=C(Nc1ccccc1)C1COc2ccccc2O1 (centres unmarked),3.19
14,COc1ccc(-n2nc(C(=O)NCC(=O)Nc3cc(OC)c(OC)c(OC)c3)c3ccccc3c2=O)cc1,12.4
15,COc1ccc(N2CC(NS(=O)(=O)c3ccc4ccccc4c3)CC2=O)cc1OC (centres unmarked),-13.2
16,Cc1cc(Nc2cc(C(=O)O)ccc2C)n2ncnc2n1,-5.65
17,COc1ccccc1-n1c(SCC(=O)OC(C)C)nc2cccnc21,13.3
18,Nc1nc2ccc(Cc3ccncc3)cc2s1,13.7
19,CCn1c(COc2ccc(Cl)cc2)nnc1SCc1ccc(C#N)cc1,-70.5
20,N/C(=N/O)c1cccn1Cc1ccccc1[N+](=O)[O-],22.9
21,O=C(Cn1ccc2ccccc2c1=O)NCCC(=O)Nc1cccnc1,13.2
22,CCCCNC(=O)C1CCC(CNS(=O)(=O)c2ccc(NC(C)=O)cc2)CC1 (centres unmarked),6.5
23,Cc1c(C(=O)NCc2cccnc2)oc2ccccc12,-10.6

row,Structure (SMILES),"hERG current change (%, negative = inhibition) at 10uM [%]"
1,CCC(C)N(C(=O)COC(=O)/C=C/c1ccc(O)c(OC)c1)C1CCS(=O)(=O)C1 (centres unmarked),10.7
2,COc1cc(OC)cc(C(=O)N[C@H](C(=O)NCCc2ccc(S(N)(=O)=O)cc2)C(C)C)c1,7.81
3,Cc1ccc(NC(=O)c2cc([N+](=O)[O-])ccc2N2CCOCC2)cc1C,-42.3
4,CCOc1ccccc1NC(=O)CSc1nnc(-c2ccco2)o1,-12
5,CC(=O)N1N=C(c2cccc(O)c2)CC1c1cccs1 (centres unmarked),17.3
6,COc1ccccc1N1CCN(C(=O)C2CC2)CC1,20
7,COc1ccc(S(=O)(=O)CCC(=O)NCc2ccc(C)o2)cc1,4
8,O=C(CSc1nnc(-c2cccnc2)n1CCc1ccccc1)N1CCCCC1,-0.213
9,COCCCNc1nc2c(-c3cccc(C)c3)nnn2c2ccccc12,11.1
10,NC(=NCc1ccco1)NC(=O)c1ccccc1,25.8
11,Cc1ccccc1CC1(CO)CCCN(C(=O)c2ccccc2Cl)C1 (centres unmarked),-81.5
12,CN(C)Cc1nc2c(c(=O)[nH]1)C1(CCCCC1)Cc1ccccc1-2,-11.7
13,CC1CCN(CC(C)OC(=O)c2ccc3c(c2)OCCO3)CC1.Cl (centres unmarked),-5.31
14,O=C(NCCc1csc(-c2cccc(F)c2)n1)c1ccco1,-4.61
15,O=C(COC(=O)C1=COCCO1)NC(=O)c1ccc(OC(F)F)cc1,6.95
16,COc1ccc(/C=C2\SC(=S)N(CCC(=O)N(CCO)c3ccccc3)C2=O)cc1OC,18.4
17,CCCn1nnc(NC(=O)c2ccc3c(c2)OCO3)n1,15.6
18,CC(CC(=O)O)CC(=O)Nc1ccc(S(N)(=O)=O)cc1 (centres unmarked),14.1
19,O=C(Nc1nnc(-c2ccc(Cl)s2)o1)C1CC1,5.76
20,Cc1nnsc1C(=O)Nc1ccc(S(=O)(=O)N2CCCCC2)cc1,16.9
21,Cc1cc(C)cc(OC2CCCCC2NS(=O)(=O)c2ccccc2)c1 (centres unmarked),-6.55
22,O=C(CSc1nnc(-c2ccccn2)o1)Nc1ccccc1Cl,7.2
23,CCn1cc(C(=O)NCC(OC)OC)c(=O)c2cc(S(=O)(=O)N(C)C3CCCCC3)ccc21,-44.2

row,Structure (SMILES),"hERG current change (%, negative = inhibition) at 10uM [%]"
1,COc1cccc(C(=O)N2CCN(C3CCCCC3)CC2)c1.O=C(O)C(=O)O,-13.5
2,CCOC(=O)c1cnc2ccc(C)cc2c1N(C)Cc1ccccc1,-1.01
3,Cc1cc(OCC(=O)Nc2cc(-c3nn4c(C)nnc4s3)ccc2C)ccc1Cl,-0.386
4,CCN1CCc2ccccc2C1,11.7
5,O=C(CCC1COc2ccccc2O1)N1CCCC1 (centres unmarked),-3.13
6,CCc1nc2c(sc3nc4c(cc32)COC(C)(C)C4)c(=O)n1CCN(CC)CC,-38.1
7,Cc1cc(C)n2nc(SCC(=O)Nc3ccc(S(=O)(=O)N(C)C)cc3)nc2n1,-32.7
8,O=C(O)c1c[nH]ccc1=O,6.89
9,CCOP(=O)(c1ccccc1)c1nc(-c2ccccc2C)oc1N1CCCCC1 (centres unmarked),0.633
10,O=C(C1CCCN(S(=O)(=O)c2cccs2)C1)N1CCc2ccccc2C1 (centres unmarked),-41.1
11,C[C@H](C(=O)CC(=O)OC(C)(C)C)[C@H](O)c1ccccc1,-18.5
12,C1CC(CN2CCOCC2)CN(Cc2nc(CC3CC3)no2)C1 (centres unmarked),19
13,Cc1ccnc(NC(=O)c2cccc(NC(=O)c3ccccc3C)c2)c1,8.61
14,Cc1ccc(N=Cc2cc(Cc3ccccc3Cl)cc([N+](=O)[O-])c2O)c(O)c1,23.7
15,CCCCN(CC)C(=O)c1cc2c(=O)n3cccc(C)c3nc2s1,-0.924
16,O=C(NC1CCS(=O)(=O)C1)c1cccc(Br)c1 (centres unmarked),7.43
17,COc1ccc(CNC(=O)CCSCc2ccccc2C)cc1,-17.8
18,CCc1nnc(NC(=O)CCC(=O)Nc2ccc(Cl)cc2)s1,18.3
19,COc1ccccc1N1CCN(C(=O)/C=C/c2cccs2)CC1,-19.2
20,COC(=O)[C@@H]1Cc2c([nH]c3ccccc23)C(C)N1C(=O)c1ccccc1 (some centres unmarked),3.27
21,Cc1nn2c(-c3ccncc3)ccnc2c1Br,-1.19
22,COc1ccc(OCCN(C)Cc2c(O)ccc3ccccc23)cc1,19
23,Cc1csc(NC(=O)C(NS(=O)(=O)c2ccc(Br)s2)c2ccccc2)n1 (centres unmarked),-1.44

row,Structure (SMILES),"hERG current change (%, negative = inhibition) at 10uM [%]"
1,CCCc1nnc(NC(=O)CCC(=O)NC2CCCCCC2)s1,13.7
2,Cc1cc(C(=O)CCl)c(C)n1Cc1ccco1,3.06
3,CC1CCCCC12NC(=O)N(CC(=O)c1ccc(Cl)s1)C2=O (centres unmarked),12.9
4,Cc1cccc(/C(N)=N/OC(=O)COc2ccc(Cl)c(C)c2)c1,13.2
5,COc1cc(/C=C/C(=O)OCC(=O)NC(=O)NC(C)C)cc(OC)c1OC,36.4
6,COc1ccc(CCNS(=O)(=O)c2cccc(C)c2)cc1OC,9.8
7,O=C(C1CCCN1C(=O)c1cccs1)N1CCc2ccccc21 (centres unmarked),5.02
8,CC(C)NS(=O)(=O)c1ccc(Br)c(C(=O)OC(C)C(=O)NC2CCCCC2C)c1 (centres unmarked),-1.13
9,CN1CCN(C(=O)/C(=C\c2cccnc2)NC(=O)c2cccc(Br)c2)CC1,-4.02
10,Cc1ccccc1NC(=O)Cc1nc(CN(C)CC(=O)Nc2cccc(F)c2)cs1,-20.2
11,COc1ccc(NS(=O)(=O)c2c(C)cc(C)cc2C)cn1,-17.2
12,Cc1cccc(CCN=C(N)NS(=O)(=O)c2ccccc2)c1,10.1
13,CN1CCC(=O)N([C@H](CC#N)c2ccccc2)CC1,16.2
14,COc1ccc(S(=O)(=O)N2CCC3(CC2)OCCN3S(=O)(=O)c2c(C)cc(C)cc2C)cc1,10.4
15,Cc1ccc(S(=O)(=O)NNc2nnc(C)c(=O)[nH]2)cc1,17.3
16,Cc1ccc(O)c(C(=O)CC(=O)c2cccc(F)c2)c1,14.7
17,COc1ccc(C(=O)Nc2ccc3c(c2)nc2n3CCSC2)cc1,-24.7
18,O=C(c1ccc2c(c1)OCO2)N1CCN(c2cccc(C(F)(F)F)c2)CC1,-53.8
19,O=C(NC1CCCCCCC1)c1ccco1,-13
20,Cc1csc(NC(=O)Cn2nc(C)c([N+](=O)[O-])c2C)n1,8.42
21,CSc1ncc(C(=O)NCCCc2ccccc2)c(C)n1,6.8
22,CCN(c1ccccc1)S(=O)(=O)c1ccc(OC)c(NC(=O)CN2C(=O)NC(C)(C)C2=O)c1,4.75
23,CC1=NN(C(N)=S)C(=O)C1N=Nc1c(C)n(C)n(-c2ccccc2)c1=O (centres unmarked),11.7
